# Several values for one entry are separate records, joined by “and”; a condition that tells them apart may be missing. Equal entries are not always repeated. Inconclusive means that the source gave no clear call. Such entries were picked first, then a sample of the others. A potency beside an inconclusive call is a rough fit, not a confirmed value. A structure can be active in one record and inactive in another. Activity calls are given as the source filed them. Unless noted, calls come from the whole dose curve; as a rule, active = well fitted curve in the direction sought with a large enough effect in the repeat runs; inconclusive = weak or mixed curves; inactive = no such curve, though single readings can be large; an effect the other way counts as inactive or inconclusive.
# Assays:
# [1] = target: Progesterone receptor (Homo sapiens) (UniProt P06401); assay: qHTS assay to identify small molecule antagonists of the progesterone receptor (PR) signaling pathway (AID 1346795; active = well fitted inhibition curve with a large enough effect in the signal ratio in the repeat runs, not every such curve was filed as active; inconclusive = weak or mixed curves; the % refers to the signal ratio; for activity change, negative = inhibition: % is set by controls: 0 for no effect and ±100 for the full control effect); conditions: PR-UAS-bla HEK293T, beta-lactamase FRET ratio, 16 h; activity change, negative = inhibition: at 92.4 µM (top of the series) unless noted
# UniProt P06401, sequence (P06401 whole entry, looked up): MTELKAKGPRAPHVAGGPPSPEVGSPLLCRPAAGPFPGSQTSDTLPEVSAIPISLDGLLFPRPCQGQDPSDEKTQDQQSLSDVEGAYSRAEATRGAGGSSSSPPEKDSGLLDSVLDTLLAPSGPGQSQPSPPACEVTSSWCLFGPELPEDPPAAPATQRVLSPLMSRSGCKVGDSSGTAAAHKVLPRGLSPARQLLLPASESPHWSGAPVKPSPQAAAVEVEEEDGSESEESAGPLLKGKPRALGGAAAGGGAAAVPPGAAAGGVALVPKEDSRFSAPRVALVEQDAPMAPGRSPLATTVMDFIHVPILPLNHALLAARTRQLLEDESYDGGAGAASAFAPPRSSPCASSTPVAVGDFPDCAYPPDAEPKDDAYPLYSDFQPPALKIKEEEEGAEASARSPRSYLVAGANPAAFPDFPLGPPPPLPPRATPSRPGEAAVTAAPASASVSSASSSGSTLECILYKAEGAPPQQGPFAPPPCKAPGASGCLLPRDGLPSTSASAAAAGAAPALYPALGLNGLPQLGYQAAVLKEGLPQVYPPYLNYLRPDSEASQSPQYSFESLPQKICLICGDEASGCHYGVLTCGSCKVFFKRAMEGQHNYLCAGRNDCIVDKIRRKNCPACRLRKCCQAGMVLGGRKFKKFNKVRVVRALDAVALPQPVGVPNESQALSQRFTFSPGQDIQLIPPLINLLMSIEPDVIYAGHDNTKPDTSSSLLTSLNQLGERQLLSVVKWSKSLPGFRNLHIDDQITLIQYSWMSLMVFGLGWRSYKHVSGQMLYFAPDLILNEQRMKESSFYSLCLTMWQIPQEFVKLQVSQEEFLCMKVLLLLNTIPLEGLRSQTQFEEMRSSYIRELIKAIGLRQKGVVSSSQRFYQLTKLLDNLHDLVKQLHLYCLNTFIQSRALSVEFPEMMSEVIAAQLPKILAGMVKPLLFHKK
# Method in brief: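 HEK293T PR-UAS-bla reporter cells in charcoal-stripped serum (2%) received compound after a 6 hr settling period, followed by R5020 agonist at 1 nM final; 16 hr incubation preceded the FRET substrate step and fluorescence measurement.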
# [2] = qHTS assay to identify small molecule antagonists of the TGF-beta/Smad signaling pathway - cell viability counter screen (AID 1346824); note: nearly all actives have a fitted effect of over 50% in size
# Method in brief: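 Cytotoxicity counter-screen run in the same wells as the beta-lactamase Smad reporter read: CellTiter-Glo luminescence after 30 min at room temperature. HEK 293T SBE-bla cells had 5 hr compound exposure at 37 C with TGF-beta1 (0.25 ng/mL stock).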
# [3] = qHTS assay to identify small molecule agonists of the TGF-beta/Smad signaling pathway - cell viability counter screen (AID 1346829); note: nearly all actives have a fitted effect of over 45% in size
# Method in brief: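 Cytotoxicity counter screen: CellTiter-Glo luminescence (30 min, room temperature) measured in the SBE-bla HEK 293T reporter wells after 5 hr compound treatment at 37 C and the 2 hr substrate step.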
# [4] = qHTS assay to identify small molecule agonists of the TGF-beta/Smad signaling pathway (AID 1346859; active = well fitted activation curve with a large enough effect in the signal ratio in the repeat runs, not every such curve was filed as active; inconclusive = weak or mixed curves; the % refers to the signal ratio); conditions: SBE-bla HEK293T, TGF-beta/Smad beta-lactamase reporter, 5 h; activation: at 76.8 µM (top of the series)
# Method in brief: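 Smad-responsive beta-lactamase reporter cells (HEK 293T) received compounds from DMSO stocks after overnight attachment, were incubated 5 hr, then treated 2 hr with FRET substrate before dual-emission fluorescence measurement (405 nm excitation).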
# [5] = Human pregnane X receptor (PXR) small molecule agonists, qHTS cell viability counter screen (AID 1346977); note: nearly all actives have a fitted effect of over 50% in size
# Method in brief: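 Measures live-cell protease fluorescence (CellTiter-Fluor) in PXR-Luc HepG2 cells treated 24hr with compounds at 37C. Cells had 5hr to attach before pin transfer of DMSO solutions.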
# [6] = qHTS assay to identify small molecule antagonists of the TGF-beta/Smad signaling pathway (AID 1346924; active = well fitted inhibition curve with a large enough effect in the signal ratio in the repeat runs, not every such curve was filed as active; inconclusive = weak or mixed curves; the % refers to the signal ratio); conditions: SBE-bla HEK293T, TGF-beta/Smad reporter, beta-lactamase ratio; activity, negative = inhibition: at 76.8 µM (top of the series) unless noted
# Method in brief: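 SBE-bla HEK 293T cells were plated overnight, then received compound in DMSO plus TGF-beta1 (added as a 0.25 ng/mL solution) and were incubated 5 h at 37 C. Beta-lactamase reporter activity was read after 2 h at room temperature with LiveBLAzer B/G FRET substrate (ex 405, em 460/530 nm).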
# [7] = qHTS assay to identify small molecule antagonists of the progesterone receptor (PR) signaling pathway - cell viability counter screen (AID 1346798); note: nearly all actives have a fitted effect of over 50% in size
# Method in brief: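 Same-well multiplex: after 16 hr at 37C with compound and R5020 stimulation, HEK293T cells carrying a UAS-bla reporter received LiveBLAzer substrate (2 hr RT), then CellTiter-Glo (30 min RT) for luminescent viability.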
# [8] = qHTS assay to identify small molecule agonists of the progesterone receptor (PR) signaling pathway - cell viability counter screen (AID 1346799; calls by dose curve; note: nearly all actives have a fitted effect of over 45% in size)
# Method in brief: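 Counter screen for cytotoxicity: compound-treated PR-UAS-bla HEK293T cells (16 hr, 37C, 5% CO2) were assayed with CellTiter-Glo, luminescence measured after 30 min at room temperature.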
# [9] = target: Thyrotropin-releasing hormone receptor (Homo sapiens) (UniProt P34981); assay: qHTS assay to identify small molecule antagonists of the thyrotropin-releasing hormone receptor (TRHR) signaling pathway (AID 1346877; active = well fitted inhibition curve with a large enough effect in the repeat runs, not every such curve was filed as active; inconclusive = weak or mixed curves)
# UniProt P34981, sequence (P34981 whole entry, looked up): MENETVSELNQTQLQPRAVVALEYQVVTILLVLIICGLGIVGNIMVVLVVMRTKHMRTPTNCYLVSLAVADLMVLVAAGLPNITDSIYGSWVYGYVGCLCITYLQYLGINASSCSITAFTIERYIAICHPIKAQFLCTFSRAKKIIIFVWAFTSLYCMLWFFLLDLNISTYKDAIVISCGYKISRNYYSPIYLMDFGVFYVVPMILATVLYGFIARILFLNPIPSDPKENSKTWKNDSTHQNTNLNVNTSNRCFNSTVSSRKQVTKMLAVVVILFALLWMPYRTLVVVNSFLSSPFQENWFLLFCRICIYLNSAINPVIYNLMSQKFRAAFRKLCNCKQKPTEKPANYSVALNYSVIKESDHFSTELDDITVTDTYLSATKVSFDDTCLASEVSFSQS
# Method in brief: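 Following an 18 h incubation at 37 °C and a 2 h calcium dye load, TRHR-HEK293 cells were exposed to compound (5 min, room temperature) and challenged with TRH, 1 nM final.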
# Potency is the fitted concentration of half-maximal effect; tags give direction and shape of the fitted curve or compound fluorescence and quenching.
smiles,measurement,setting,value
C[C@@H](NCCCc1cccc(C(F)(F)F)c1)c1cccc2ccccc12,Potency,[1],"inconclusive: 33.5 µM [falling, single point]"
same,Potency,[2],"inconclusive: 23.9 µM [cytotoxic, single point]"
same,Potency,[3],"inconclusive: 21.3 µM [cytotoxic, partial curve]"
same,Potency,[4],"inconclusive: 15.1 µM [rising, single point]"
same,Potency,[5],"inconclusive: 33.5 µM [cytotoxic, single point]"
O=c1cc(-c2ccccc2)oc2ccccc12,Potency,[1],active: 61.1 µM and inconclusive: 16.6 µM
same,Potency,[4],"inconclusive: 15.4 µM [rising, partial curve, poor fit]"
same,"activity, negative = inhibition",[6],inconclusive: 8.27% and inconclusive: 2.96%
CC[C@]1(O)C[C@H]2CN(CCc3c([nH]c4ccccc34)[C@@](C(=O)OC)(c3cc4c(cc3OC)N(C=O)[C@H]3[C@@](O)(C(=O)OC)[C@H](OC(C)=O)[C@]5(CC)C=CCN6CC[C@]43[C@@H]65)C2)C1,Potency,[1],"inconclusive: 0.133 µM [falling, full curve]"
same,Potency,[7],"inconclusive: 0.298 µM [rising, full curve]"
same,Potency,[8],"inconclusive: 1.06 µM [rising, partial curve, poor fit]"
same,Potency,[5],"inconclusive: 26.6 µM [cytotoxic, partial curve]"
C=C1C[C@H]2[C@@H]3C=C(C)C4=CC(=O)CC[C@]4(C)[C@H]3CC[C@]2(C)[C@@]1(OC(C)=O)C(C)=O,"activity change, negative = inhibition",[1],inconclusive: -31.5% [at 42.5 µM]
same,Potency,[7],"inconclusive: 39.4 µM [rising, partial curve] and inconclusive: 23.7 µM [rising, partial curve]"
same,Potency,[4],"inconclusive: 12.6 µM [rising, full curve]"
same,Potency,[6],"inconclusive: 25.1 µM [fluorescent, partial curve]"
same,"activity, negative = inhibition",[6],inconclusive: -24.1% [at 35.3 µM]
same,Potency,[5],"inconclusive: 44.2 µM [cytotoxic, partial curve, poor fit]"
SC1CCCCC1,"activity change, negative = inhibition",[1],inconclusive: 8.74%
same,Potency,[7],inactive
same,Potency,[2],inactive
Oc1ccc(Cl)cc1C1CCCC1,Potency,[1],"inconclusive: 30.6 µM [falling, partial curve, poor fit]"
same,"activity, negative = inhibition",[6],inconclusive: -4.02%
CC[C@]12CCCN3CCc4c(n(c5ccccc45)[C@@](O)(C(=O)OC)C1)[C@@H]32,Potency,[1],inactive
same,Potency,[8],"inconclusive: 61.1 µM [cytotoxic, single point]"
S=C(NC1CCCCC1)NC1CCCCC1,Potency,[1],inconclusive: 6.73 µM and active: 3.44 µM
same,Potency,[7],active: 6 µM and active: 3.86 µM
same,"activity, negative = inhibition",[6],inconclusive: -12.8%
c1ccc2n[nH]nc2c1,"activity change, negative = inhibition",[1],inconclusive: -0.254%
same,"activity, negative = inhibition",[6],inconclusive: 3.75%
CC(Cc1ccc(O)c(O)c1)C(C)Cc1ccc(O)c(O)c1 (configuration not stated),Potency,[1],active: 61.1 µM
same,"activity, negative = inhibition",[6],inconclusive: 4.39%
COC(=O)[C@]1(C)CCC[C@@]2(C)[C@H]1CC=C1C=C(C(C)C)CC[C@@H]12,Potency,[1],"inconclusive: 0.0433 µM [falling, single point]"
same,Potency,[8],"inconclusive: 34.4 µM [rising, partial curve]"
CCCCCCCCn1sc(Cl)c(Cl)c1=O,"activity change, negative = inhibition",[1],inconclusive: -40.5%
same,Potency,[2],active: 21.9 µM
same,Potency,[3],active: 34.7 µM
same,Potency,[4],"inconclusive: 38.9 µM [falling, partial curve]"
same,Potency,[9],"inconclusive: 12 µM [inhibitor, full curve]"
same,Potency,[5],"inconclusive: 27.3 µM [cytotoxic, single point]"
O=C1c2ccccc2C(=O)N1SC1CCCCC1,Potency,[1],inconclusive: 77 µM [single point]
same,Potency,[2],inactive
same,Potency,[9],active: 30.1 µM
CCCN(CCC)C(=O)C(CCC(=O)OCCCN1CCN(CCOC(=O)Cc2c(C)n(C(=O)c3ccc(Cl)cc3)c3ccc(OC)cc23)CC1)NC(=O)c1ccccc1 (configuration not stated),"activity change, negative = inhibition",[1],inconclusive: -32.5% [at 42.5 µM]
same,Potency,[8],inactive
same,Potency,[4],"inconclusive: 23.9 µM [rising, single point]"
same,Potency,[6],"inconclusive: 10.7 µM [rising, partial curve]"
Cc1cc(Nc2ccc(O)cc2)ccc1N,Potency,[1],"inconclusive: 48.3 µM [falling, partial curve]"
same,Potency,[8],"inconclusive: 30.5 µM [cytotoxic, partial curve]"
same,"activity, negative = inhibition",[6],inconclusive: 4.09%
Cc1cc(C(C)(C)C)c(O)c(C(C)(C)C)c1,Potency,[8],"inconclusive: 21.1 µM [rising, partial curve, poor fit]"
COc1ccc(OC(=O)N(CC(=O)O)Cc2ccc(OCCc3nc(-c4ccccc4)oc3C)cc2)cc1,Potency,[7],"inconclusive: 13.3 µM [rising, single point]"
same,Potency,[4],inconclusive: 23.9 µM
CC(C)(c1ccc(O)cc1)c1ccc(O)cc1,Potency,[1],active: 15.2 µM and inconclusive: 15.6 µM [inhibitor]
same,"activity, negative = inhibition",[6],inconclusive: 4.84% and inconclusive: 0.0887%
same,Potency,[5],inactive and inconclusive: 69.8 µM [cytotoxic]
O=C(c1ccc(O)cc1O)c1ccc(O)cc1O,Potency,[1],inconclusive: 10.9 µM [full curve] and active: 10.9 µM
same,Potency,[6],inconclusive: 23.2 µM
same,Potency,[5],"inconclusive: 70.8 µM [cytotoxic, partial curve, poor fit]"
C[C@@H]1CC(=O)NN=C1c1ccc(NN=C(C#N)C#N)cc1,Potency,[7],"inconclusive: 33.5 µM [rising, single point]"
same,Potency,[8],"inconclusive: 7.5 µM [cytotoxic, single point]"
same,"activity, negative = inhibition",[6],inconclusive: -13.2% [at 35.3 µM] and inconclusive: -27.8% [at 35.3 µM]
CC(C)(C)c1ccc(C(=O)CCCN2CCC(OC(c3ccccc3)c3ccccc3)CC2)cc1,Potency,[7],"inconclusive: 11.9 µM [cytotoxic, partial curve, poor fit]"
same,Potency,[8],inconclusive: 29.8 µM [cytotoxic]
same,Potency,[2],active: 21.3 µM
same,Potency,[4],"inconclusive: 5.35 µM [rising, partial curve]"
O=C1OC2(c3ccccc31)c1cc(Br)c(O)c(Br)c1Oc1c2cc(Br)c(O)c1Br,Potency,[7],"inconclusive: 25 µM [cytotoxic, partial curve, poor fit]"
same,Potency,[8],"inconclusive: 56 µM [cytotoxic, single point]"
same,Potency,[6],"inconclusive: 22.2 µM [rising, partial curve] and inconclusive: 44.9 µM [rising, partial curve] and inconclusive: 19 µM [rising, partial curve]"
same,Potency,[5],active: 4.93 µM and active: 9.96 µM and active: 13.3 µM
CCCCC/C(C=O)=C\c1ccccc1,Potency,[7],inactive
same,Potency,[8],"inconclusive: 3.35 µM [cytotoxic, single point]"
